Experimental data as given in a collection of fitness landscapes (doi:10.1016/j.celrep.2020.107928).
Whole data set: some 81,000 sequences, median “one-hybrid fitness for binding parS DNA” near -0.17, cut for the highest 2% near 0.51. The list shows a part of the results.

B1: Caulobacter ParB omega fusion; a variant is named by its letters at X, in order, B8GW30 (parent)
chain: MESVVVGEPGMSEGRRGLGRGLSALLGEVDAAPAQAPGEQLGGSREAPIEILQRNPDQPRRTFREEDLEDLSNSIREKGVLQPILVRPSPDTAGEYQIVAGERAWRAAQRAGLKTVPIMVRELDDLAVLEIGIIENVQRADLNVLEEALSYKVLMEKFERTQENIAQTIGKSXSHVANXMRLLXLPDEVQSYLVSGELTAXHARAIAAAADPVALAKQIIEGGLSVRETEALARKAPNLSAGKSKGGRPPRVKDTDTQALESDLSSVLGLDVSIDHRGSTGTLTITYATLEQLDDLCNRLTRGI

Variants of: B1
Assay: one-hybrid fitness for binding parS DNA (scaled: cognate 1, non-cognate 0); higher = stronger binding
Details: with parS DNA site
Method in brief: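 The reporter was HIS3, with the binding site 19 bp from the promoter, in E. coli USO used for bacterial one-hybrid selection of Caulobacter ParB libraries with four specificity codons randomised. Growth was on M9 lacking histidine, with 0.1 mM IPTG and 5 mM 3-AT, for 48 hours at 37°C. Illumina sequencing covered plasmids before and after selection; three replicate libraries were pooled and variants with under 10 reads dropped. A fitness score is the log change in variant-to-wild-type read ratio, rescaled to the cognate and non-cognate references.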

Variant	one-hybrid fitness for binding parS DNA
SPRE	≤ 0.2
ENPV	≤ 0.2
VYCG	≤ 0.2
RVVH	≤ 0.2
RRQC	0.63
PTNE	≤ 0.2
TWRL	≤ 0.2
AVGG	≤ 0.2
VCIR	≤ 0.2
QGGM	≤ 0.2
MIMW	≤ 0.2
DVII	≤ 0.2
CDGR	≤ 0.2
QPQC	≤ 0.2
TRFT	≤ 0.2
LASM	≤ 0.2
RSCE	≤ 0.2
ITQR	≤ 0.2
PHRA	≤ 0.2
CSYR	≤ 0.2
RPRM	≤ 0.2
LTAC	≤ 0.2
GYSL	≤ 0.2
SAKG	≤ 0.2
NPNW	≤ 0.2
LHDS	≤ 0.2

Variant	one-hybrid fitness for binding parS DNA
VSRS	≤ 0.2
LYAK	≤ 0.2
VLDI	≤ 0.2
SKRL	≤ 0.2
ALTE	≤ 0.2
NYVR	≤ 0.2
EPKA	≤ 0.2
QERP	≤ 0.2
WSTT	≤ 0.2
QMDI	≤ 0.2
MRNW	≤ 0.2
DTGS	≤ 0.2
MNML	≤ 0.2
AYRA	≤ 0.2
ATGF	≤ 0.2
NLVA	≤ 0.2
TMDG	≤ 0.2
HMDC	≤ 0.2
CEES	≤ 0.2
FWPV	≤ 0.2
RSQA	0.555
RIAC	0.973
LRNN	≤ 0.2
VLRE	≤ 0.2
KCSC	≤ 0.2
RSCY	0.47

Variant	one-hybrid fitness for binding parS DNA
HTPA	≤ 0.2
NTSS	≤ 0.2
PKRV	≤ 0.2
DNGY	≤ 0.2
TVYP	≤ 0.2
GNRG	≤ 0.2
TWLF	≤ 0.2
PHMS	≤ 0.2
HEMS	≤ 0.2
THKT	≤ 0.2
QRNQ	≤ 0.2
HPWC	≤ 0.2
WAPC	≤ 0.2
GEVG	≤ 0.2
TDEN	≤ 0.2
HWKT	≤ 0.2
FQIC	≤ 0.2
QTFR	≤ 0.2
YDSV	≤ 0.2
RDTG	≤ 0.2
VRIT	≤ 0.2
SGFG	≤ 0.2
GICR	≤ 0.2
KTWT	≤ 0.2
YHYT	≤ 0.2
PTMP	≤ 0.2

Variant	one-hybrid fitness for binding parS DNA
DQAA	≤ 0.2
HHCR	≤ 0.2
SAQN	≤ 0.2
CMVE	≤ 0.2
CRNS	≤ 0.2
AGSV	≤ 0.2
AETT	≤ 0.2
CQST	≤ 0.2
RDLS	≤ 0.2
RWKN	0.421
ITSC	≤ 0.2
PIAK	≤ 0.2
HYLG	≤ 0.2
LRRV	≤ 0.2
RQTA	0.574
DCPE	≤ 0.2
NLSY	≤ 0.2
RSTD	≤ 0.2
RKKY	0.492
ESED	≤ 0.2
HPSK	≤ 0.2
RYNY	0.466
RSPG	0.507
MMCS	≤ 0.2
SWAC	≤ 0.2
NRNI	≤ 0.2

Variant	one-hybrid fitness for binding parS DNA
ERTT	≤ 0.2
RRCG	0.758
YDYR	≤ 0.2
NSHT	≤ 0.2
CGHS	≤ 0.2
NVHF	≤ 0.2
IVET	≤ 0.2
VKLK	≤ 0.2
AVHP	≤ 0.2
AYHS	≤ 0.2
NDGS	≤ 0.2
NWAF	≤ 0.2
TGCV	≤ 0.2
TWHR	≤ 0.2
ILLI	≤ 0.2
MWCC	≤ 0.2
DTKR	≤ 0.2
TVMK	≤ 0.2
IDRG	≤ 0.2
TCRK	≤ 0.2
GFTI	≤ 0.2
RLRW	0.259
GVAN	≤ 0.2
NYHF	≤ 0.2
HGAM	≤ 0.2
RHTK	≤ 0.2

Variant	one-hybrid fitness for binding parS DNA
KMKI	≤ 0.2
HTGE	≤ 0.2
TPTL	≤ 0.2
HYKR	≤ 0.2
VETT	≤ 0.2
VKGS	≤ 0.2
HFTP	≤ 0.2
LRHG	≤ 0.2
DKER	≤ 0.2
TLRK	≤ 0.2
ESTL	≤ 0.2
QDAQ	≤ 0.2
RHDD	≤ 0.2
YKNF	≤ 0.2
RNAT	0.686
KLAD	≤ 0.2
RLRT	0.834
HPNC	≤ 0.2
ACVH	≤ 0.2
ENEG	≤ 0.2
HHRS	≤ 0.2
TSEH	≤ 0.2
RMQQ	≤ 0.2
